Data: the supplement of paper PMC8728848
This is one part of the list.

Key:
Experiment in all cases: glycan array binding signal (z-score within array); higher = stronger binding
Conditions in all cases: glycan notation: IUPAC condensed, linker removed
[1] = target: Neu5Ac(a2-3)Gal(b1-3)GlcNAc(b1-2)Man(a1-3)[GlcNAc(b1-4)][Neu5Ac(a2-3)Gal(b1-3)GlcNAc(b1-2)Man(a1-6)]Man(b1-4)GlcNAc(b1-4)GlcNAc
Summary of the method: (§1)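 The binding signal is a Z-score computed within each array and averaged over linkers. Arrays of the same protein sequence at different concentrations or buffers were also averaged together. Data originate from 3228 arrays in the Consortium for Functional Glycomics database, kept only where the protein sequence was available.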

[2] = target: Neu5Ac(a2-3)Gal(b1-3)GlcNAc(b1-2)Man(a1-3)[Neu5Ac(a2-3)Gal(b1-3)GlcNAc(b1-2)Man(a1-6)]Man(b1-4)GlcNAc(b1-4)GlcNAc
Summary of the method: as §1

[3] = target: Neu5Ac(a2-3)Gal(b1-3)GlcNAc(b1-3)Gal(b1-3)GlcNAc
Summary of the method: as §1

[4] = target: Neu5Ac(a2-3)Gal(b1-3)GlcNAc(b1-3)Gal(b1-4)GlcNAc
Summary of the method: as §1

[5] = target: Neu5Ac(a2-3)Gal(b1-3)GlcNAc(b1-3)GalNAc
Summary of the method: as §1

[6] = target: Neu5Ac(a2-3)Gal(b1-3)GlcNAc(b1-4)Gal(b1-4)Glc
Summary of the method: as §1

[7] = target: Neu5Ac(a2-3)Gal(b1-3)GlcNAc(b1-6)GalNAc
Summary of the method: as §1

[8] = target: Neu5Ac(a2-3)Gal(b1-3)GlcNAc6S
Summary of the method: as §1

[9] = target: Neu5Ac(a2-3)Gal(b1-3)[Fuc(a1-4)]GlcNAc
Summary of the method: as §1

[10] = target: Neu5Ac(a2-3)Gal(b1-3)[Fuc(a1-4)]GlcNAc(b1-3)Gal(b1-3)[Fuc(a1-4)]GlcNAc
Summary of the method: as §1

[11] = target: Neu5Ac(a2-3)Gal(b1-3)[Fuc(a1-4)]GlcNAc(b1-3)Gal(b1-4)[Fuc(a1-3)]GlcNAc
Summary of the method: as §1

[12] = target: Neu5Ac(a2-3)Gal(b1-3)[GlcNAc(b1-6)]GalNAc
Summary of the method: as §1

[13] = target: Neu5Ac(a2-3)Gal(b1-3)[Neu5Ac(a2-6)]GalNAc
Summary of the method: as §1

[14] = target: Neu5Ac(a2-3)Gal(b1-3)[Neu5Ac(a2-6)]GlcNAc(b1-3)[Fuc(a1-3)[Gal(b1-4)]GlcNAc(b1-6)]Gal(b1-4)Glc
Summary of the method: as §1

[15] = target: Neu5Ac(a2-3)Gal(b1-3)]Neu5Ac(a2-3)Gal(b1-4)]GlcNAc
Summary of the method: as §1

Neu5Ac(a2-3)Gal(b1-4)Glc = target: Neu5Ac(a2-3)Gal(b1-4)Glc
Summary of the method: as §1

[16] = target: Neu5Ac(a2-3)Gal(b1-4)GlcNAc
Summary of the method: as §1

[17] = target: Neu5Ac(a2-3)Gal(b1-4)GlcNAc(b1-2)Man
Summary of the method: as §1

[18] = target: Neu5Ac(a2-3)Gal(b1-4)GlcNAc(b1-2)Man(a1-3)[GlcNAc(b1-4)][Neu5Ac(a2-3)Gal(b1-4)GlcNAc(b1-2)Man(a1-6)]Man(b1-4)GlcNAc(b1-4)GlcNAc
Summary of the method: as §1

[19] = target: Neu5Ac(a2-3)Gal(b1-4)GlcNAc(b1-2)Man(a1-3)[Neu5Ac(a2-3)Gal(b1-4)GlcNAc(b1-2)Man(a1-6)]Man(b1-4)GlcNAc(b1-4)GlcNAc
Summary of the method: as §1

[20] = target: Neu5Ac(a2-3)Gal(b1-4)GlcNAc(b1-2)Man(a1-3)[Neu5Ac(a2-3)Gal(b1-4)GlcNAc(b1-2)Man(a1-6)]Man(b1-4)GlcNAc(b1-4)[Fuc(a1-6)]GlcNAc
Summary of the method: as §1

[21] = target: Neu5Ac(a2-3)Gal(b1-4)GlcNAc(b1-2)Man(a1-3)[Neu5Ac(a2-6)Gal(b1-4)GlcNAc(b1-2)Man(a1-6)]Man(b1-4)GlcNAc(b1-4)GlcNAc
Summary of the method: as §1

[22] = target: Neu5Ac(a2-3)Gal(b1-4)GlcNAc(b1-2)[Neu5Ac(a2-3)Gal(b1-4)GlcNAc(b1-4)]Man(a1-3)[GlcNAc(b1-4)][Neu5Ac(a2-3)Gal(b1-4)GlcNAc(b1-2)[Neu5Ac(a2-3)Gal(b1-4)GlcNAc(b1-6)]Man(a1-6)]Man(b1-4)GlcNAc(b1-4)GlcNAc
Summary of the method: as §1

[23] = target: Neu5Ac(a2-3)Gal(b1-4)GlcNAc(b1-2)[Neu5Ac(a2-3)Gal(b1-4)GlcNAc(b1-4)]Man(a1-3)[GlcNAc(b1-4)][Neu5Ac(a2-3)Gal(b1-4)GlcNAc(b1-4)Man(a1-6)]Man(b1-4)GlcNAc(b1-4)GlcNAc
Summary of the method: as §1

[24] = target: Neu5Ac(a2-3)Gal(b1-4)GlcNAc(b1-2)[Neu5Ac(a2-3)Gal(b1-4)GlcNAc(b1-6)]Man(a1-6)[Neu5Ac(a2-3)Gal(b1-4)GlcNAc(b1-2)Man(a1-3)]Man(b1-4)GlcNAc(b1-4)GlcNAc
Summary of the method: as §1

[25] = target: Neu5Ac(a2-3)Gal(b1-4)GlcNAc(b1-2)[Neu5Ac(a2-3)Gal(b1-4)GlcNAc(b1-6)]Man(a1-6)[Neu5Ac(a2-3)Gal(b1-4)GlcNAc(b1-2)Man(a1-3)][GlcNAc(b1-4)]Man(b1-4)GlcNAc(b1-4)GlcNAc
Summary of the method: as §1

[26] = target: Neu5Ac(a2-3)Gal(b1-4)GlcNAc(b1-3)Gal
Summary of the method: as §1

[27] = target: Neu5Ac(a2-3)Gal(b1-4)GlcNAc(b1-3)Gal(b1-3)GlcNAc
Summary of the method: as §1

[28] = target: Neu5Ac(a2-3)Gal(b1-4)GlcNAc(b1-3)Gal(b1-4)GlcNAc
Summary of the method: as §1

[29] = target: Neu5Ac(a2-3)Gal(b1-4)GlcNAc(b1-3)Gal(b1-4)GlcNAc(b1-2)Man(a1-3)[Neu5Ac(a2-3)Gal(b1-4)GlcNAc(b1-3)Gal(b1-4)GlcNAc(b1-2)Man(a1-6)]Man(b1-4)GlcNAc(b1-4)GlcNAc
Summary of the method: as §1

[30] = target: Neu5Ac(a2-3)Gal(b1-4)GlcNAc(b1-3)Gal(b1-4)GlcNAc(b1-3)Gal(b1-4)GlcNAc
Summary of the method: as §1

[31] = target: Neu5Ac(a2-3)Gal(b1-4)GlcNAc(b1-3)Gal(b1-4)GlcNAc(b1-3)Gal(b1-4)GlcNAc(b1-2)Man(a1-3)[Neu5Ac(a2-3)Gal(b1-4)GlcNAc(b1-3)Gal(b1-4)GlcNAc(b1-3)Gal(b1-4)GlcNAc(b1-2)Man(a1-6)]GalNAc
Summary of the method: as §1

[32] = target: Neu5Ac(a2-3)Gal(b1-4)GlcNAc(b1-3)Gal(b1-4)GlcNAc(b1-3)GalNAc
Summary of the method: as §1

[33] = target: Neu5Ac(a2-3)Gal(b1-4)GlcNAc(b1-3)Gal(b1-4)GlcNAc(b1-3)[Neu5Ac(a2-3)Gal(b1-4)GlcNAc(b1-3)Gal(b1-4)GlcNAc(b1-6)]GalNAc
Summary of the method: as §1

[34] = target: Neu5Ac(a2-3)Gal(b1-4)GlcNAc(b1-3)Gal(b1-4)GlcNAc(b1-6)[Gal(b1-3)]GalNAc
Summary of the method: as §1

[35] = target: Neu5Ac(a2-3)Gal(b1-4)GlcNAc(b1-3)Gal(b1-4)[Fuc(a1-3)]GlcNAc
Summary of the method: as §1

[36] = target: Neu5Ac(a2-3)Gal(b1-4)GlcNAc(b1-3)GalNAc
Summary of the method: as §1

[37] = target: Neu5Ac(a2-3)Gal(b1-4)GlcNAc(b1-3)[Neu5Ac(a2-3)Gal(b1-4)GlcNAc(b1-6)]GalNAc
Summary of the method: as §1

B1: PX9937F-bfa-516-16-516 (Bacteroides fragilis) (protein)
chain: LDIDPTSSIADSNYWKTEAQFSTFNVGLHALLRECSFNFFLLGEPRADIYGDVPFGGEATQGMERLPFNTINKENTGISNFAGMYKVINQINLMIAKTKETTVLSEAGKNYYLGEAYGMRAYLYFHLLRSWGDVILYLDYTNGASLDLSNLSKAASPAEEVMKQIKEDITASEKGFGSDYSFKYGRYYWSMAATQMLKGEVYLWSGRQMGGGTADYTTAKTALQSIVSNANVSLQDDFSKVFAYNNKDNSEIIFSIRNAKDEYNMWDDRFRQNLVPQQAYMTSTYCNKEGVSFKDLPEGQLNGLIRLQIRYDLYNKAFRDGDTRKDASMTAVYQKQQDGTVKYIAPFCNKYQGVLLDGASQRSFLNDYPIYRYADCLLLLAEAKALLGEDPTAEINQVRERAYGKEFFEANKATLAYPNDKGDFYTDNKYMSGDEDPLEAILKERMREFMFEGKRWYDLRLLGADYVTKRTSAVATRLLWPINESVLTDNPALKQTPGYQN
[1]
  glycan array binding signal (z-score): -0.018
[2]
  glycan array binding signal (z-score): -0.063
[3]
  glycan array binding signal (z-score): -0.249
[4]
  glycan array binding signal (z-score): -0.213
[5]
  glycan array binding signal (z-score): 0.059
[6]
  glycan array binding signal (z-score): -0.262
[7]
  glycan array binding signal (z-score): -0.165
[8]
  glycan array binding signal (z-score): -0.065
[9]
  glycan array binding signal (z-score): -0.201
[10]
  glycan array binding signal (z-score): 0.008
[11]
  glycan array binding signal (z-score): -0.15
[12]
  glycan array binding signal (z-score): -0.036
[13]
  glycan array binding signal (z-score): -0.172
[14]
  glycan array binding signal (z-score): -0.295
[15]
  glycan array binding signal (z-score): -0.301
Neu5Ac(a2-3)Gal(b1-4)Glc
  glycan array binding signal (z-score): -0.325
[16]
  glycan array binding signal (z-score): -0.262
[17]
  glycan array binding signal (z-score): 0.087
[18]
  glycan array binding signal (z-score): -0.331
[19]
  glycan array binding signal (z-score): -0.233
[20]
  glycan array binding signal (z-score): -0.216
[21]
  glycan array binding signal (z-score): -0.011
[22]
  glycan array binding signal (z-score): -0.243
[23]
  glycan array binding signal (z-score): -0.258
[24]
  glycan array binding signal (z-score): -0.154
[25]
  glycan array binding signal (z-score): -0.109
[26]
  glycan array binding signal (z-score): -0.179
[27]
  glycan array binding signal (z-score): -0.33
[28]
  glycan array binding signal (z-score): -0.269
[29]
  glycan array binding signal (z-score): 0.035
[30]
  glycan array binding signal (z-score): -0.282
[31]
  glycan array binding signal (z-score): 0.224
[32]
  glycan array binding signal (z-score): -0.145
[33]
  glycan array binding signal (z-score): -0.339
[34]
  glycan array binding signal (z-score): -0.252
[35]
  glycan array binding signal (z-score): -0.237
[36]
  glycan array binding signal (z-score): -0.231
[37]
  glycan array binding signal (z-score): -0.202
